# Test results: publication PMC12040169 (PLOS Biology, 2025)
# The list shows a part of the results.
# System: T1, C. trachomatis L2/434/Bu expressing GFP (CTL2-GFP)
# T1 construct: L2/434/Bu GFP intracellular growth in HeLa cells
# Set-up: species or system HeLa; C. trachomatis total inclusion area by high-content imaging, normalised to DMSO
# Settings: total inclusion area; 28.5 h, 10 µM; inhibitor
# Procedure, shortened: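 Host cell viability was gauged from Hoechst-stained nuclei counts, while chlamydial growth was taken from total inclusion area and inclusion number per well. Cells were fixed and imaged by high-content microscopy once bulk GFP and resorufin fluorescence had been measured.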
row,Structure (SMILES),% of control remaining
1,COc1cccc2c(C(C(=O)O)N3CCN(c4ccc(C(F)(F)F)cn4)CC3)c[nH]c12 (stereo not drawn) [CBK286857],132.643
2,Cc1nn(C)cc1-c1cncn1CCN(C)C1CCCC1 [CBK281780],105.931
3,Cc1cccc(N2C(=O)SC(N(CC(=O)O)c3cccc(C)c3)C2=O)c1 (stereo not drawn) [CBK287095],101.82
4,O=C(NCc1cccc2ccccc12)c1ccccc1-n1cccc1 [CBK149585],66.5706
5,Cc1ccc(-c2nc3ccccc3[nH]2)cc1 [CBK085933],24.3352
6,CCn1nc2c(C)cc3ccc(OC)cc3n2c1=O [CBK283796],90.6258
7,COCCNC(=O)c1cc2n(n1)C(C(F)(F)F)CC(c1cccs1)N2 (stereo not drawn) [CBK307614],71.1994
8,O=C1CNC(=S)N1c1cccc(C(F)(F)F)c1 [CBK288398],60.242
9,COc1ccccc1C1CCC(NCCCC(=O)c2ccc(F)cc2)CC1 (stereo not drawn) [CBK015965C],43.4447
10,CCN(CC)C(=O)c1ccc(N)cc1C [CBK022686C],56.3109
11,Cc1ccc(C(=O)NCc2ccc(-c3n[nH]cc3C(=O)N(C)c3ccccc3)cc2)cc1 [CBK285600],96.571
12,COc1ccc(-n2c(=O)[nH]cc(C(=O)N3CCc4ccccc43)c2=O)cc1OC [CBK287555],110.879
13,CC1CCN(C(=O)CSc2ccc3nnc(-c4ccccc4)n3n2)CC1 [CBK287512],84.3389
14,CC(C)C(=O)N1CC2(CCN(CC3COc4ccccc4O3)CC2)c2ccccc21 (stereo not drawn) [CBK143946],85.5719
15,O=C(CSCc1ccc(Cl)cc1Cl)Nc1ccc(O)cc1C(=O)O [CBK275322],95.292
16,Cn1nccc1NS(=O)(=O)c1ccc(F)cc1 [CBK050484],85.1778
17,CN1CCN(c2ccc(NC(=O)c3cccc(-c4cc5ccccc5oc4=O)c3)cc2Cl)CC1 [CBK269689],107.149
18,CC(C)CNc1nccnc1-c1cccc(C=O)c1 [CBK088744],153.438
19,CC1=C[C@@H](CNC(=O)c2ccccc2)[C@H](C(C)C)C[C@H]1CC(=O)O [CBK289213],116.681
20,O=C(Nc1cccc(CCc2ccncc2)c1)C1CC(=O)N(Cc2ccncc2)C1 (stereo not drawn) [CBK286287],105.063
21,CC(=O)c1ccc2c3c(cccc13)CC(N(C)C)C2 (stereo not drawn) [CBK005691S],15.1779

row,Structure (SMILES),% of control remaining
1,CCC(=O)c1cccc2c1NC=C1C(=O)CC(C)(C)CC1=N2 [CBK265821],119.162
2,COc1cc(NS(=O)(=O)c2ccc(NC(=O)c3cccnc3)cc2)ncn1 [CBK268156],69.9847
3,CN1CCCN(c2cncc(-c3ccc(F)c(Cl)c3)n2)CC1 [CBK065297],104.469
4,O=C(CSCc1ccc(Cl)cc1Cl)Nc1c[nH]c(=O)[nH]c1=O [CBK126912],79.5377
5,CC(C)(C)c1ccc(C(=O)N2CCN(C(=O)CN3CCOCC3)C2)cc1 [CBK051554C],56.4422
6,COc1ccc(NC2=NC(=O)CC(C(=O)Nc3ccc(C)c(C)c3)N2)cc1 (stereo not drawn) [CBK269359],92.0372
7,CN1C[C@@H](NC(=O)Nc2ccccc2)C[C@H]1c1nc(-c2cccnc2)no1 [CBK288858],105.684
8,CC(=O)c1sccc1NS(=O)(=O)c1ccc2ccccc2c1 [CBK200042],80.2744
9,COc1ccc2[nH]c3c(c2c1)CCNC31CCN(CC(=O)C(C)(C)C)CC1 [CBK039471],134.006
10,Cc1cccc(-c2csc3c(=O)[nH]c(N4CCC(C(=O)NCc5cccnc5)CC4)nc23)c1 [CBK215624],94.5128
11,CC(C)(C)C(=O)CSc1nnc(-c2ccccn2)s1 [CBK006894],73.0926
12,CCn1cc(S(=O)(=O)N2CCC3(CC2)OCCO3)cn1 [CBK270321],92.9348
13,CNCc1cn(C[C@H]2CC3CCN2C[C@@H]3C(=O)N2CCCC2)nn1 (stereo partly drawn) [CBK289087],88.6063
14,COc1ccccc1-c1c(O)n[nH]c1C(C)C [CBK075133],74.4314
15,CCN(CC)CCN1CCN(c2cc(-c3cc(C(F)(F)F)cc(C(F)(F)F)c3)ncn2)CC1 [CBK091195],121.846
16,O=C(Nc1ccccc1N1CCOCC1)c1ccc(OCc2ccccc2)cc1 [CBK265992],133.185
17,O=C(CN1C(=O)c2ccc([N+](=O)[O-])cc2C1=O)Nc1ccc(O)cc1C(=O)O [CBK263456],106.678
18,COC(=O)c1ccc(F)c(NC(=O)C2CCCC2)c1 [CBK296640],87.963
19,CN(C)CC1CCCN(C(=O)c2cc3cc(Cl)ccc3n2C)C1 (stereo not drawn) [CBK282121],96.2055
20,CC(=O)Nc1ccccc1NC(=O)CCCN1C(=O)CCC1=O [CBK267681],93.0984
21,O=C(CCN1CCN(CCO)CC1)Nc1ccc(F)c(F)c1 [CBK264316],106.181

row,Structure (SMILES),% of control remaining
1,O=C(COc1ccc(-c2ccccc2)cc1)N/N=C/c1ccncc1 [CBK262210],102.47
2,Cn1c(SCC(=O)Nc2c(F)cc(F)cc2Br)nnc1-c1cnccn1 [CBK267584],104.862
3,O=C1c2ccccc2C(=O)N1CCc1c[nH]c2ccc(O)cc12 [CBK086794],101.1
4,Cc1nn(Cc2nnn(CC(=O)O)n2)c(C)c1Br [CBK009457],62.0485
5,COCCOc1ccc(C(=O)N[C@@H]2CNCCC[C@H]2O)cc1 [CBK289071],107.316
6,CN(CC(=O)N1CCCCC1)S(=O)(=O)c1cc(Cl)ccc1Cl [CBK091826],52.4813
7,O=C(O)c1cccc(NC(=O)C2CCCCC2C(=O)O)c1 (stereo not drawn) [CBK261538],103.754
8,CC(C)(O)C#Cc1ccc(C(=O)NC(CSCc2ccccc2)C(=O)O)s1 (stereo not drawn) [CBK267705],111.983
9,CCN1CCN(C(=O)C2CCN(S(=O)(=O)c3ccc(Br)cc3)CC2)CC1 [CBK266881],103.9
10,CCNC(=O)N1C(CC(=O)OCC)C(=O)NC2CCCCC21 (stereo not drawn) [CBK268030],98.0526
11,O=c1[nH]nc2c(N3CCc4ccccc4C3)nccn12 [CBK288497],90.6476
12,Cn1c(SCc2c(Cl)cccc2[N+](=O)[O-])nnc1-c1ccc(NC(=O)c2ccccc2Cl)cc1 [CBK264983],105.823
13,O=C(NCc1nc2ccccc2s1)c1ccc2c(c1)OCCO2 [CBK295325],84.7009
14,O=C(Cc1cccc(O)c1)N1CCCC1c1nc2ccccc2[nH]1 (stereo not drawn) [CBK282346],105.312
15,CCN(CC)CCN1CCN(c2cc(-c3ccsc3)ncn2)CC1 [CBK036973],147.705
16,Cn1ccnc1CN1CCC2(C/C=C/Cc3ccccc3OCC(=O)NCCNC2=O)CC1 [CBK292180],98.4013
17,Brc1cccc(CSc2nnc(COc3ccccc3)n2Cc2ccccc2)c1 [CBK268250],87.2209
18,CN(CCCNC(=O)/C=N/O)CCCC(C)(C)C [CBK288480],56.5694
19,Cn1cc(-c2nc(C3CCCCCN3C(=O)c3cc(Cl)c[nH]3)no2)cn1 (stereo not drawn) [CBK306396],102.019
20,CC(=O)c1ccc(NC(=O)Cn2cnc3c(sc4ncccc43)c2=O)cc1 [CBK287773],93.477
21,O=C(O)CCC(=O)N1CCN(S(=O)(=O)c2ccc(F)cc2)CC1 [CBK286956],93.2194

row,Structure (SMILES),% of control remaining
1,Fc1cccc(-c2nccnc2NCC2CC2)c1 [CBK036767],116.552
2,NS(=O)(=O)c1ccc(CNC(=O)C(Sc2ccccc2)c2ccccc2)cc1 (stereo not drawn) [CBK264355],101.665
3,Cn1ccc(CNCc2c(Br)cc(F)c(F)c2N2CCCCC2)n1 [CBK304763],9.003
4,COc1ccc(C(NC(=O)CCc2ccccc2)c2ccc3cccnc3c2O)cc1 (stereo not drawn) [CBK293942],98.3956
5,Cc1cc(NS(=O)(=O)c2ccc(NC(=O)C(c3ccccc3)c3ccccc3)cc2)no1 [CBK085112],80.5547
6,Cc1nnc(SCC(=O)Nc2cc(C(F)(F)F)ccc2N2CCOCC2)o1 [CBK266815],92.9103
7,O=C(O)C[S+]([O-])c1ccccc1C(=O)O (stereo not drawn) [CBK263244],40.6775
8,Cc1ccccc1C(NC(=O)C1CCN(S(=O)(=O)C(C)C)CC1)c1ccccn1 (stereo not drawn) [CBK059711],93.5051
9,CS(=O)(=O)Nc1ccc(-c2ccsc2)c2ccccc12 [CBK083742],84.652
10,CCOC(=O)CC1SC(NS(=O)(=O)c2ccc(Br)cc2)=NC1=O (stereo not drawn) [CBK014126],105.857
11,Fc1ccc(-c2ccc(Nc3cccnc3)nc2)cc1Cl [CBK037642],108.271
12,O=C(O)CCC(CCC(=O)O)([N+](=O)[O-])[N+](=O)[O-] [CBK260956],97.5423
13,O=C(O)C(Cc1ccccc1)C(C(=O)O)c1ccccc1 (stereo not drawn) [CBK286578],75.944
14,Cc1cc2occ(CC(=O)NCc3cc(C4CC4)[nH]n3)c2cc1C [CBK282576],98.8623
15,O=C(Nc1ccc2oc(-c3cccnc3)nc2c1)c1cccc(-c2cc3ccccc3oc2=O)c1 [CBK268612],105.71
16,COc1ccc(-n2c(S)nnc2-c2cccs2)cc1 [CBK266832],27.1735
17,COc1ccc(CNc2ccc(N3CCOCC3)c(C(=O)O)c2)c(OC)c1 [CBK269860],123.611
18,O=C(O)c1cccc(NS(=O)(=O)c2cccc([N+](=O)[O-])c2)c1 [CBK155711],99.4481
